The results in this text go back to PMC11995724, “Antibiotic target discovery by integrated phenotypic and activity-based profiling of electrophilic fragments” (Cell chemical biology, 2025).

SMILES strings stand for the structures. The campaign covered roughly 3,200 compounds. About 110 (3.4%) showed an effect of 50% or more. Some of the results follow.

This assay concerns T1, V. cholerae SAD30.
T1 construct: SAD30
Details: species or system S. aureus MSSA476 (TSB) or V. cholerae SAD30 (LB); 384-well bacterial growth screen at 25 uM, OD600 relative to DMSO control. Particulars: relative growth, OD600, LB; 25 µM; inhibitor.
For the compound `CC(Cl)C(=O)N1CCn2c(nn(CC(=O)N(C)C)c2=O)C1` (centres unmarked) [7-K17, 2-[7-(2-chloropropanoyl)-3-oxo-2H,3H,5H,6H,7H,8H-[1,2,4]triazolo[4,3-a]pyrazin-2-yl]-N,N-dimethylacetamide], the “% of control remaining” value came out at 78.2422%.

Take `Cc1c(Cl)cccc1N1C(=O)C=CC1=O` [10-B17, 1-(3-chloro-2-methylphenyl)-2,5-dihydro-1H-pyrrole-2,5-dione]: the “% of control remaining” value came out at 23.3781%.

As to `C=CC(=O)N1CCN(Cc2cc(C)no2)CC1` [1-B18, 1-{4-[(3-methyl-1,2-oxazol-5-yl)methyl]piperazin-1-yl}prop-2-en-1-one], the “% of control remaining” value is 110.402%.

Regarding `CC(Cl)C(=O)NC(C)c1ccc(C(F)(F)F)nc1Cl` (centres unmarked) [7-G09, 2-chloro-N-{1-[2-chloro-6-(trifluoromethyl)pyridin-3-yl]ethyl}propanamide], the “% of control remaining” value is on record as 79.0352%.

In the case of `COc1ccc(C=C(C#N)C(=O)Nc2ccc(C)cc2)cc1` [9-A19, 2-cyano-3-(4-methoxyphenyl)-N-(4-methylphenyl)prop-2-enamide], the “% of control remaining” value is listed as 88.3073%.

Regarding `COc1ccccc1NC(=O)c1ccc(NC(=O)CCl)cc1` [4-O17, 4-(2-chloroacetamido)-N-(2-methoxyphenyl)benzamide], the “% of control remaining” value is given as 104.205%.

Turning to `CC(NC(=O)c1ccccc1NC(=O)CCl)c1ccccc1` (centres unmarked) [4-B07, 2-(2-chloroacetamido)-N-(1-phenylethyl)benzamide], the “% of control remaining” value stood at 105.758%.

For `C=CC(=O)N(Cc1cnn(C(C)C)c1)c1ccc2nc(C)oc2c1` [2-C13, N-(2-methyl-1,3-benzoxazol-6-yl)-N-{[1-(propan-2-yl)-1H-pyrazol-4-yl]methyl}prop-2-enamide], the “% of control remaining” value is given as 92.8206%.

For the compound `CCn1cc(S(=O)(=O)N2CCSSCC2)cn1` [10-N19, 5-[(1-ethyl-1H-pyrazol-4-yl)sulfonyl]-1,2,5-dithiazepane], the “% of control remaining” value amounted to 96.7855%.

For `CC1=C(c2ccco2)CN(C(=O)CCl)CC1` [5-H05, 2-chloro-1-[5-(furan-2-yl)-4-methyl-1,2,3,6-tetrahydropyridin-1-yl]ethan-1-one], the “% of control remaining” value stood at 103.898%.

With `CC(NC(=O)CCl)c1ccc2c(c1)CCCC2` (centres unmarked) [4-B03, 2-chloro-N-[1-(5,6,7,8-tetrahydronaphthalen-2-yl)ethyl]acetamide], the “% of control remaining” value is 113.867%.

For `C=CC(=O)N1CCCCC1C1CCCO1` (centres unmarked) [2-L21, 1-[2-(oxolan-2-yl)piperidin-1-yl]prop-2-en-1-one], the “% of control remaining” value turned out to be 95.7541%.

`CCc1ccc(NC(=O)C(C)Cl)cc1` (centres unmarked) [4-L15, 2-chloro-N-(4-ethylphenyl)propanamide]: the “% of control remaining” value turned out to be 96.9592%.

Consider `CC(Cl)C(=O)N1CCN(C(=O)C(F)(F)F)C2(CCCCC2)C1` (centres unmarked) [7-K06, 2-chloro-1-[1-(2,2,2-trifluoroacetyl)-1,4-diazaspiro[5.5]undecan-4-yl]propan-1-one], for which the “% of control remaining” value was found to be 75.3345%.

As to `CCc1nocc1CN(C)C(=O)C(C)Cl` (centres unmarked) [7-M06, 2-chloro-N-[(3-ethyl-1,2-oxazol-4-yl)methyl]-N-methylpropanamide], the “% of control remaining” value turned out to be 82.6037%.

Turning to `C=CC(=O)Nc1ccc(C(=O)NCC2CSCCS2)cc1` (centres unmarked) [2-K21, N-[(1,4-dithian-2-yl)methyl]-4-(prop-2-enamido)benzamide], the “% of control remaining” value is on record as 95.2909%.

With `Cc1nc([C@H]2CCCN2C(=O)C(C)Cl)cs1` (stereo partly drawn) [7-O04, 2-chloro-1-[(2R)-2-(2-methyl-1,3-thiazol-4-yl)pyrrolidin-1-yl]propan-1-one], the “% of control remaining” value was 87.7581%.

As for `C=CC(=O)NC1CCCN(Cc2ccccc2)C1=O` (centres unmarked) [2-L13, N-(1-benzyl-2-oxopiperidin-3-yl)prop-2-enamide], the “% of control remaining” value was found to be 88.4975%.

As for `C=CC(=O)Nc1cnoc1C(C)C` [3-L10, N-[5-(propan-2-yl)-1,2-oxazol-4-yl]prop-2-enamide], the “% of control remaining” value is listed as 94.3834%.

As for `C=CC(=O)N1CCC(c2nnc3n2CCCC3)CC1` [2-J21, 1-(4-{5H,6H,7H,8H-[1,2,4]triazolo[4,3-a]pyridin-3-yl}piperidin-1-yl)prop-2-en-1-one], the “% of control remaining” value is given as 102.702%.

Consider `Cc1cc(C)c(-c2cc(NC(=O)CCl)n(-c3ccccc3)n2)cc1C` [6-A10, 2-chloro-N-[1-phenyl-3-(2,4,5-trimethylphenyl)-1H-pyrazol-5-yl]acetamide], for which the “% of control remaining” value came to 102.986%.

Regarding `C=CC(=O)N(Cc1cc2cccc(OC)c2o1)[C@@H]1C[C@H]2CC[C@@H]1O2` (racemic) [1-J13, rac-N-[(7-methoxy-1-benzofuran-2-yl)methyl]-N-[(1R,2S,4S)-7-oxabicyclo[2.2.1]heptan-2-yl]prop-2-enamide], the “% of control remaining” value is given as 76.6816%.

Regarding `Cc1nn(-c2ccccc2)c(C)c1CNC(=O)CCl` [6-I08, 2-chloro-N-[(3,5-dimethyl-1-phenyl-1H-pyrazol-4-yl)methyl]acetamide], the “% of control remaining” value came to 96.4641%.

On to `CC(Cl)C(=O)NC(C)c1ncn(C)n1` (centres unmarked) [6-P13, 2-chloro-N-[1-(1-methyl-1H-1,2,4-triazol-3-yl)ethyl]propanamide], for which the “% of control remaining” value came out at 99.0426%.

With `C=CC(=O)N[C@H](C)c1ccccc1OC(C)C` [3-N16, N-[(1R)-1-[2-(propan-2-yloxy)phenyl]ethyl]prop-2-enamide], the “% of control remaining” value came to 95.9713%.

Regarding `N#Cc1ccccc1NC(=O)CCl` [5-P04, 2-chloro-N-(2-cyanophenyl)acetamide], the “% of control remaining” value was 116.339%.

As to `CCCn1c(C)cc(C=C(C#N)C(=O)N2CCC2)c1C` [8-L08, 2-(azetidine-1-carbonyl)-3-(2,5-dimethyl-1-propyl-1H-pyrrol-3-yl)prop-2-enenitrile], the “% of control remaining” value is listed as 60.707%.

Take `CC(Cl)C(=O)N1CCN(C2=NS(=O)(=O)c3ccccc32)CC1` (centres unmarked) [7-K11, 3-[4-(2-chloropropanoyl)piperazin-1-yl]-1lambda6,2-benzothiazole-1,1-dione]: the “% of control remaining” value stood at 77.4492%.

Regarding `C=CC(=O)NCc1ccc(C(=O)N2CCC[C@H]2C(=O)NC)cc1` [3-L06, (2S)-N-methyl-1-{4-[(prop-2-enamido)methyl]benzoyl}pyrrolidine-2-carboxamide], the “% of control remaining” value is given as 95.0891%.

Regarding `CC(Cl)C(=O)NC1CCc2nc(-c3cc(F)ccc3F)cn2C1` (centres unmarked) [7-K10, 2-chloro-N-[2-(2,5-difluorophenyl)-5H,6H,7H,8H-imidazo[1,2-a]pyridin-6-yl]propanamide], the “% of control remaining” value is recorded as 75.8632%.

Consider `O=C(CCl)C1CCC2(CC1)CC2` [10-C17, 2-chloro-1-{spiro[2.5]octan-6-yl}ethan-1-one], for which the “% of control remaining” value is recorded as 115.488%.

Turning to `COc1ccc(C2=NN(C(=O)CCl)C(c3ccc(F)cc3)C2)cc1` (centres unmarked) [4-M20, 2-chloro-1-[5-(4-fluorophenyl)-3-(4-methoxyphenyl)-4,5-dihydro-1H-pyrazol-1-yl]ethan-1-one], the “% of control remaining” value worked out at 100.927%.

Regarding `C=CC(=O)N1CCCC(n2ccnn2)C1` (centres unmarked) [1-D09, 1-[3-(1H-1,2,3-triazol-1-yl)piperidin-1-yl]prop-2-en-1-one], the “% of control remaining” value was 92.2272%.

As for `C=CC(=O)N(CC(C)(C)C)C1CCN(c2ccc(C#N)cn2)CC1` [1-N09, N-[1-(5-cyanopyridin-2-yl)piperidin-4-yl]-N-(2,2-dimethylpropyl)prop-2-enamide], the “% of control remaining” value worked out at 82.8102%.

For the compound `C=CC(=O)N1CCC(C(=O)Nc2cc(Cl)ccc2SCC)CC1` [1-E06, N-[5-chloro-2-(ethylsulfanyl)phenyl]-1-(prop-2-enoyl)piperidine-4-carboxamide], the “% of control remaining” value was 79.2227%.

Turning to `C=CC(=O)NCc1cscn1` [1-I07, N-[(1,3-thiazol-4-yl)methyl]prop-2-enamide], the “% of control remaining” value came out at 90.1345%.

As to `N#CC(=Cc1cccs1)C(=O)Nc1ccccc1Cl` [9-L11, N-(2-chlorophenyl)-2-cyano-3-(thiophen-2-yl)prop-2-enamide], the “% of control remaining” value was 87.3555%.

For the compound `N#CC(=CC=Cc1ccccc1)C(=O)Nc1ccc(F)c(Cl)c1` [8-O18, N-(3-chloro-4-fluorophenyl)-2-cyano-5-phenylpenta-2,4-dienamide], the “% of control remaining” value is given as 78.9259%.

With `C=CC(=O)NC(C)c1ccc(Oc2ccccc2)c(F)c1` (centres unmarked) [2-H13, N-[1-(3-fluoro-4-phenoxyphenyl)ethyl]prop-2-enamide], the “% of control remaining” value was found to be 84.6377%.

In the case of `C=CC(=O)NCc1ccc(C(=O)N2CCCOC(C)(C)C2)cc1` [3-N06, N-{[4-(2,2-dimethyl-1,4-oxazepane-4-carbonyl)phenyl]methyl}prop-2-enamide], the “% of control remaining” value came to 99.6765%.

In the case of `CCCc1ccc(-c2csc(NC(=O)CCl)n2)cc1` [4-C09, 2-chloro-N-[4-(4-propylphenyl)-1,3-thiazol-2-yl]acetamide], the “% of control remaining” value is listed as 93.3362%.

With `Cc1cc(N2CCCC(NC(=O)C(C)Cl)C2=O)n(C)n1` (centres unmarked) [7-B13, 2-chloro-N-[1-(1,3-dimethyl-1H-pyrazol-5-yl)-2-oxopiperidin-3-yl]propanamide], the “% of control remaining” value is on record as 83.2645%.

Consider `O=C1C=CC(=O)N1c1cnccn1` [10-P07, 1-(pyrazin-2-yl)-2,5-dihydro-1H-pyrrole-2,5-dione], for which the “% of control remaining” value is 97.4089%.

Consider `C=CC(=O)N1CCC(C(=O)Nc2cc(OCC)ccc2Cl)CC1` [1-I20, N-(2-chloro-5-ethoxyphenyl)-1-(prop-2-enoyl)piperidine-4-carboxamide], for which the “% of control remaining” value is 84.006%.
